# Data reported in patent US20230159453A1 (COCRYSTAL PHARMA, INC., priority 2020, published 2023).
# Target: Noro protease (Norovirus, UniProt Q83883)
# Assay: Norovirus protease inhibition assay (Noro-Norwalk FRET protease assay)
# Settings: IC50 (μM), peptide substrate 10 μM, 90 minutes at 37° C., compounds 200 μM to 10.2 nM
row,Compound,IC50 [µM]
1,"CC(C)(c1cccc(Cl)c1)C(OC(=O)N[C@@H](CC1CCCCC1)C(=O)N[C@H](C=O)C[C@@H]1CCNC1=O)c1ccc(F)cc1 (stereo partly drawn) [Compound C137, 2-(3-Chlorophenyl)-1-(4-fluorophenyl)-2-methylpropyl ((S)-3-cyclohexyl-1-oxo-1-(((S)-1-oxo-3-((S)-2-oxopyrrolidin-3-yl)propan-2-yl)amino)propan-2-yl) carbamate]",9.9
2,"CC(C)C(=O)N1CCC2(CC1)CC(CC(NC(=O)[C@H](CC1CCCCC1)NC(=O)c1cc3ccccc3[nH]1)C(=O)C(N)=O)C(=O)N2 (stereo partly drawn) [Compound C138, N-((2S)-1-((4-amino-1-(8-isobutyryl-2-oxo-1,8-diazaspiro[4.5]decan-3-yl)-3,4-dioxobutan-2-yl)amino)-3-cyclohexyl-1-oxopropan-2-yl)-1H-indole-2-carboxamide]",92.9
3,"CC(C)(C1CCCCC1)C(NC(=O)OCc1ccccc1)C(=O)N[C@H](C=O)C[C@@H]1CCNC1=O (stereo partly drawn) [Compound C140, Benzyl (3-cyclohexyl-3-methyl-1-oxo-1-(((S)-1-oxo-3-((S)-2-oxopyrrolidin-3-yl)propan-2-yl)amino)butan-2-yl)carbamate]",76
4,"CC(=O)N1CCC2(CC1)CC(CC(C=O)NC(=O)[C@H](CC1CCCCC1)NC(=O)c1cc3cc(Cl)ccc3[nH]1)C(=O)N2 (stereo partly drawn) [Compound C141, N-((2S)-1-((1-(8-acetyl-2-oxo-1,8-diazaspiro[4.5]decan-3-yl)-3-oxopropan-2-yl)amino)-3-cyclohexyl-1-oxopropan-2-yl)-5-chloro-1H-indole-2-carboxamide]",9.6
5,"CC(C)(c1cccc(Cl)c1)C(OC(=O)N[C@@H](CC1CCCCC1)C(=O)N[C@H](C=O)C[C@@H]1CCNC1=O)c1ccc(Cl)cc1 (stereo partly drawn) [Compound C143, 2-(3-Chlorophenyl)-1-(4-chlorophenyl)-2-methylpropyl ((S)-3-cyclohexyl-1-oxo-1-(((S)-1-oxo-3-((S)-2-oxopyrrolidin-3-yl)propan-2-yl)amino)propan-2-yl) carbamate]",3.7
6,"CC(C)(c1cccc(Cl)c1)C(OC(=O)N[C@@H](CC1CCCCC1)C(=O)N[C@@H](C[C@@H]1CCNC1=O)C(=O)C(=O)NC1CC1)c1ccc(F)cc1 (stereo partly drawn) [Compound C144, 2-(3-Chlorophenyl)-1-(4-fluorophenyl)-2-methylpropyl ((S)-3-cyclohexyl-1-(((S)-4-(cyclopropylamino)-3,4-dioxo-1-((S)-2-oxopyrrolidin-3-yl)butan-2-yl)amino)-1-oxopropan-2-yl) carbamate]",140
7,"CC(C)(c1cccc(Cl)c1)C(OC(=O)N[C@@H](CC1CCCCC1)C(=O)N[C@@H](C[C@@H]1CCNC1=O)C(=O)C(=O)NC1CC1)c1ccc(Cl)cc1 (stereo partly drawn) [Compound C145, 2-(3-Chlorophenyl)-1-(4-chlorophenyl)-2-methylpropyl ((S)-3-cyclohexyl-1-(((S)-4-(cyclopropylamino)-3,4-dioxo-1-((S)-2-oxopyrrolidin-3-yl)butan-2-yl)amino)-1-oxopropan-2-yl) carbamate]",> 200
8,O=C(N[C@@H](Cc1ccccc1)C(=O)N[C@@H](C[C@@H]1CCNC1=O)C(=O)C(=O)NC1CC1)OC1CCCC1Cc1cccc(Cl)c1 (stereo partly drawn) [Compound C146],> 200
9,"CC(C)C[C@H](NC(=O)OC(Cc1cccc(Cl)c1)c1ccccc1)C(=O)N[C@@H](C[C@@H]1CCNC1=O)C(=O)C(=O)NC1CC1 (stereo partly drawn) [Compound C147, 2-(3-Chlorophenyl)-1-phenylethyl ((S)-1-(((S)-4-(cyclopropylamino)-3,4-dioxo-1-((S)-2-oxopyrrolidin-3-yl)butan-2-yl)amino)-4-methyl-1-oxopentan-2-yl) carbamate]",> 200
10,"CC(C)(c1cccc(Cl)c1)C(OC(=O)N[C@@H](CC1CCCCC1)C(=O)N[C@@H](C[C@@H]1CCNC1=O)C(=O)C(=O)NC1CC1)c1ccccc1 (stereo partly drawn) [Compound C148, 2-(3-Chlorophenyl)-2-methyl-1-phenylpropyl ((S)-3-cyclohexyl-1-(((S)-4-(cyclopropylamino)-3,4-dioxo-1-((S)-2-oxopyrrolidin-3-yl)butan-2-yl)amino)-1-oxopropan-2-yl)carbamate]",58.7
11,"O=C(N[C@@H](CC1CCCCC1)C(=O)N[C@@H](C[C@H]1CC2(CCCCC2)NC1=O)C(=O)C(=O)NC1CC1)OCc1cccc(Cl)c1 [Compound C149, 3-Chlorobenzyl ((S)-3-cyclohexyl-1-(((S)-4-(cyclopropylamino)-3,4-dioxo-1-((S)-2-oxo-1-azaspiro[4.5]decan-3-yl)butan-2-yl)amino)-1-oxopropan-2-yl)carbamate]",> 200
12,"CC(C)(c1cccc(Cl)c1)C(OC(=O)N[C@@H](CC1CCCCC1)C(=O)N[C@@H](C[C@@H]1CCNC1=O)C(=O)C(=O)N1CCCC1)c1ccc2ccccc2c1 (stereo partly drawn) [Compound C150, 2-(3-Chlorophenyl)-2-methyl-1-(naphthalen-2-yl)propyl ((S)-3-cyclohexyl-1-(((S)-3,4-dioxo-1-((S)-2-oxopyrrolidin-3-yl)-4-(pyrrolidin-1-yl)butan-2-yl)amino)-1-oxopropan-2-yl)carbamate]",> 200
13,"O=C(N[C@@H](CC1CCCCC1)C(=O)N[C@@H](C[C@@H]1CCNC1=O)C(=O)C(=O)NC1CC1)OC1CCCC1Cc1cccc(Cl)c1 (stereo partly drawn) [Compound C151, 2-(3-Chlorobenzyl)cyclopentyl ((S)-3-cyclohexyl-1-(((S)-4-(cyclopropylamino)-3,4-dioxo-1-((S)-2-oxopyrrolidin-3-yl)butan-2-yl)amino)-1-oxopropan-2-yl)carbamate]",131
14,"CC(C)C[C@H](NC(=O)OC1CCCC1Cc1cccc(Cl)c1)C(=O)N[C@H](C=O)C[C@@H]1CCNC1=O (stereo partly drawn) [Compound C152, 2-(3-chlorobenzyl)cyclopentyl ((S)-4-methyl-1-oxo-1-(((S)-1-oxo-3-((S)-2-oxopyrrolidin-3-yl)propan-2-yl)amino)pentan-2-yl)carbamate]",2.9
15,"O=C(N[C@@H](CC1CCCCC1)C(=O)NC(CC1CC2(CCCCC2)NC1=O)C(=O)C(=O)NC1CC1)OC(Cc1cccc(Cl)c1)c1ccccc1 (stereo partly drawn) [Compound C153, 2-(3-Chlorophenyl)-1-phenylethyl ((2S)-3-cyclohexyl-1-((4-(cyclopropylamino)-3,4-dioxo-1-(2-oxo-1-azaspiro[4.5]decan-3-yl)butan-2-yl)amino)-1-oxopropan-2-yl)carbamate]",> 200
16,"O=C(N[C@@H](CC1CCCCC1)C(=O)N[C@@H](C[C@@H]1CCNC1=O)C(=O)C(=O)NC1CC1)OCc1cccc(Cl)c1 [Compound C154, 3-Chlorobenzyl ((S)-3-cyclohexyl-1-(((S)-4-(cyclopropylamino)-3,4-dioxo-1-((S)-2-oxopyrrolidin-3-yl)butan-2-yl)amino)-1-oxopropan-2-yl)carbamate]",76.1
17,"CC1(C)CC(CC(NC(=O)[C@H](CC2CCCCC2)NC(=O)OC(Cc2cccc(Cl)c2)c2ccccc2)C(=O)C(=O)NC2CC2)C(=O)N1 (stereo partly drawn) [Compound C155, 2-(3-Chlorophenyl)-1-phenylethyl ((2S)-3-cyclohexyl-1-((4-(cyclopropylamino)-1-(5,5-dimethyl-2-oxopyrrolidin-3-yl)-3,4-dioxobutan-2-yl)amino)-1-oxopropan-2-yl) carbamate]",86.4
18,"CC1(C)CC(C[C@@H](C=O)NC(=O)[C@H](CC2CCCCC2)NC(=O)OC2CCCC2Cc2cccc(Cl)c2)C(=O)N1 (stereo partly drawn) [Compound C156, 2-(3-Chlorobenzyl)cyclopentyl ((2S)-3-cyclohexyl-1-((1-(5,5-dimethyl-2-oxopyrrolidin-3-yl)-3-oxopropan-2-yl)amino)-1-oxopropan-2-yl)carbamate]",6.1
